Reference: the BET-seq Pho4 binding data (Le et al. 2018)
The list shows a part of the results. These are noisy estimates, calculated here from bound and input reads.

Each sequence was assayed against T1, Pho4 (S. cerevisiae) (UniProt P07270) (assay: relative binding free energy (BET-seq); higher = weaker binding). Conditions: reference: library average.
T1 sequence: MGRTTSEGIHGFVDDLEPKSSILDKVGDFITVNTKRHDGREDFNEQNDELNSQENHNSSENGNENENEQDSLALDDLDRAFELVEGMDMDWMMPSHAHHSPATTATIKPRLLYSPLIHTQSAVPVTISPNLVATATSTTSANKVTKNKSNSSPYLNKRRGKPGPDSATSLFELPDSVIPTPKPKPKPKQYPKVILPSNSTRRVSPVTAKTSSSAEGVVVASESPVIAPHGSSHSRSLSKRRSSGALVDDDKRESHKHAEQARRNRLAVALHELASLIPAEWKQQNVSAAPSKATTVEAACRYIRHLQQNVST
For TCTGGCACGTGGTCTT, the “relative binding free energy” value was -0.25 kcal/mol.
For AAGGTCACGTGGAAGC, the “relative binding free energy” value was 0.37 kcal/mol.
In the case of CGTGACACGTGTTCGG, the “relative binding free energy” value is reported as 0.06 kcal/mol.
GCGCTCACGTGTGGTT was tested, and the “relative binding free energy” value was 0.25 kcal/mol.
With AGCGGCACGTGGTATG the “relative binding free energy” value was -0.27 kcal/mol.
For GCGGGCACGTGGGGGG, the “relative binding free energy” value was -0.2 kcal/mol.
With TAAGGCACGTGTCTGA the “relative binding free energy” value was -0.14 kcal/mol.
With TGTAACACGTGAGCGT the “relative binding free energy” value was 0.24 kcal/mol.
TTCGACACGTGGTGTT was tested, and the “relative binding free energy” value was -0.08 kcal/mol.
With ATAGTCACGTGATTCT the “relative binding free energy” value was 0.19 kcal/mol.
With GTTTGCACGTGCGGAT the “relative binding free energy” value was -0.01 kcal/mol.
GGGTACACGTGATTGG was tested, and the “relative binding free energy” value was 0.19 kcal/mol.
In the case of GCCGTCACGTGATGGG, the “relative binding free energy” value is reported as 0.24 kcal/mol.
With AGTTGCACGTGTTTAA the “relative binding free energy” value was 0.06 kcal/mol.
In the case of GCAAGCACGTGTTGGG, the “relative binding free energy” value is reported as 0.03 kcal/mol.
With TATTGCACGTGTGGAA the “relative binding free energy” value was 0.15 kcal/mol.
With AGGTGCACGTGATGAA the “relative binding free energy” value was 0.12 kcal/mol.
For AGCTGCACGTGAAGTT, the “relative binding free energy” value was 0.17 kcal/mol.
With AAAGTCACGTGAGTTA the “relative binding free energy” value was 0.26 kcal/mol.
In the case of GTTAGCACGTGCAAGG, the “relative binding free energy” value is reported as 0.01 kcal/mol.
In the case of TATTACACGTGGGGCT, the “relative binding free energy” value is reported as -0.06 kcal/mol.
With GGGTACACGTGTTTTT the “relative binding free energy” value was 0.17 kcal/mol.
With GGGCTCACGTGACGGG the “relative binding free energy” value was 0.42 kcal/mol.
With TGTCGCACGTGGATTT the “relative binding free energy” value was -0.03 kcal/mol.
For AGGTACACGTGTGAGA, the “relative binding free energy” value was 0.24 kcal/mol.
GGGATCACGTGATTGC was tested, and the “relative binding free energy” value was 0.35 kcal/mol.
With GCGGACACGTGTTGGG the “relative binding free energy” value was 0.06 kcal/mol.
In the case of TTCGTCACGTGTCTTG, the “relative binding free energy” value is reported as 0.07 kcal/mol.
With GGTGCCACGTGTCTGT the “relative binding free energy” value was -0.08 kcal/mol.
In the case of TAGTTCACGTGCCGTG, the “relative binding free energy” value is reported as 0.29 kcal/mol.
In the case of TTTTGCACGTGCATTG, the “relative binding free energy” value is reported as -0.05 kcal/mol.
In the case of CGCGGCACGTGTGTGA, the “relative binding free energy” value is reported as -0.05 kcal/mol.
TTTTGCACGTGTAATA was tested, and the “relative binding free energy” value was 0.06 kcal/mol.
With TTCTGCACGTGGGCGT the “relative binding free energy” value was -0.05 kcal/mol.
For GTGTTCACGTGTGTAG, the “relative binding free energy” value was 0.4 kcal/mol.
For TTGGACACGTGTGGGC, the “relative binding free energy” value was 0.18 kcal/mol.
In the case of GCAGTCACGTGGGGTC, the “relative binding free energy” value is reported as 0.05 kcal/mol.
With GCGTTCACGTGGCTGA the “relative binding free energy” value was 0.42 kcal/mol.
With GTGTGCACGTGCTTGG the “relative binding free energy” value was -0.09 kcal/mol.
TAGTTCACGTGATATG was tested, and the “relative binding free energy” value was 0.29 kcal/mol.
With CGTGTCACGTGATGAA the “relative binding free energy” value was 0.18 kcal/mol.
For GTGTACACGTGGATTG, the “relative binding free energy” value was 0.12 kcal/mol.
With TATATCACGTGATAGG the “relative binding free energy” value was 0.23 kcal/mol.
With CGAGACACGTGCGGGT the “relative binding free energy” value was -0.03 kcal/mol.
TAAGTCACGTGTAGGT was tested, and the “relative binding free energy” value was 0.18 kcal/mol.
With AGATTCACGTGTTATA the “relative binding free energy” value was 0.09 kcal/mol.
For GTGATCACGTGTGAGA, the “relative binding free energy” value was 0.32 kcal/mol.
GGCGTCACGTGTTATT was tested, and the “relative binding free energy” value was 0.11 kcal/mol.
For GTTAGCACGTGGATAT, the “relative binding free energy” value was -0.13 kcal/mol.
In the case of AGTGACACGTGGAAAG, the “relative binding free energy” value is reported as 0.02 kcal/mol.
ACGAGCACGTGCGGGG was tested, and the “relative binding free energy” value was -0.02 kcal/mol.
With GGTGCCACGTGAGTGT the “relative binding free energy” value was 0.17 kcal/mol.
For GCATTCACGTGAGTTT, the “relative binding free energy” value was 0.42 kcal/mol.
With GGGCACACGTGGTATG the “relative binding free energy” value was -0.03 kcal/mol.
With GTCTGCACGTGTGGTG the “relative binding free energy” value was 0.1 kcal/mol.
In the case of TTTTACACGTGAGGGA, the “relative binding free energy” value is reported as 0.27 kcal/mol.
In the case of ATGTTCACGTGGTATC, the “relative binding free energy” value is reported as 0.35 kcal/mol.
For TAAAACACGTGAGGTG, the “relative binding free energy” value was 0.2 kcal/mol.
In the case of GTTGACACGTGAGGAG, the “relative binding free energy” value is reported as 0.05 kcal/mol.
TGATCCACGTGGGGGC was tested, and the “relative binding free energy” value was -0.18 kcal/mol.
For AGGTTCACGTGGTCAG, the “relative binding free energy” value was 0.21 kcal/mol.
With ACAGGCACGTGGGTTT the “relative binding free energy” value was -0.12 kcal/mol.
For TGGTTCACGTGCAAAG, the “relative binding free energy” value was 0.24 kcal/mol.
For TCTGTCACGTGCTTTA, the “relative binding free energy” value was 0.21 kcal/mol.
With AGGTGCACGTGGCTGG the “relative binding free energy” value was -0.04 kcal/mol.
For TAATTCACGTGGTAGG, the “relative binding free energy” value was 0.19 kcal/mol.
In the case of GGGCACACGTGGGTGT, the “relative binding free energy” value is reported as -0.02 kcal/mol.
In the case of TGTCTCACGTGGGCTG, the “relative binding free energy” value is reported as 0.08 kcal/mol.
With TTGAGCACGTGATTGT the “relative binding free energy” value was 0.13 kcal/mol.
In the case of GCGGACACGTGGTAGG, the “relative binding free energy” value is reported as -0.05 kcal/mol.
GGGTACACGTGGTCTT was tested, and the “relative binding free energy” value was -0.02 kcal/mol.
In the case of AGTTACACGTGGGAAT, the “relative binding free energy” value is reported as 0.13 kcal/mol.
In the case of TCGTTCACGTGGAATT, the “relative binding free energy” value is reported as 0.28 kcal/mol.
With TGAATCACGTGTGGCA the “relative binding free energy” value was 0.24 kcal/mol.
In the case of TGGAGCACGTGAGGTG, the “relative binding free energy” value is reported as 0.24 kcal/mol.
For GAATGCACGTGTGGGG, the “relative binding free energy” value was 0.11 kcal/mol.
TTATACACGTGCGTAT was tested, and the “relative binding free energy” value was -0.06 kcal/mol.
For GTGGACACGTGGTTCA, the “relative binding free energy” value was 0.02 kcal/mol.
In the case of CTTTCCACGTGATGTG, the “relative binding free energy” value is reported as 0.25 kcal/mol.
For GTGTTCACGTGTGACG, the “relative binding free energy” value was 0.37 kcal/mol.
For AATAGCACGTGTGTGA, the “relative binding free energy” value was -0.05 kcal/mol.
TAGTACACGTGGTAGG was tested, and the “relative binding free energy” value was 0.03 kcal/mol.
With GTTGTCACGTGCTAAG the “relative binding free energy” value was 0.07 kcal/mol.
GTCGGCACGTGAGATA was tested, and the “relative binding free energy” value was 0.3 kcal/mol.
GATGACACGTGGATGT was tested, and the “relative binding free energy” value was 0.12 kcal/mol.
In the case of GGGGTCACGTGTTATA, the “relative binding free energy” value is reported as 0.2 kcal/mol.
For AATTGCACGTGGAGAA, the “relative binding free energy” value was 0.1 kcal/mol.
For GAATGCACGTGGGGCT, the “relative binding free energy” value was -0.02 kcal/mol.
GTTCTCACGTGGTTCG was tested, and the “relative binding free energy” value was 0.16 kcal/mol.
For AATGGCACGTGCCGGT, the “relative binding free energy” value was -0.22 kcal/mol.
With ATGATCACGTGCGGTA the “relative binding free energy” value was 0.17 kcal/mol.
In the case of GTGGCCACGTGTATGG, the “relative binding free energy” value is reported as -0.1 kcal/mol.
With GGTAGCACGTGCGGTG the “relative binding free energy” value was -0.02 kcal/mol.
For TTGGGCACGTGTGACT, the “relative binding free energy” value was 0 kcal/mol.
For GTTTGCACGTGATATG, the “relative binding free energy” value was 0.12 kcal/mol.
In the case of TTCGGCACGTGAGGGG, the “relative binding free energy” value is reported as 0.15 kcal/mol.
In the case of TTGGGCACGTGAGTGA, the “relative binding free energy” value is reported as 0.13 kcal/mol.
TTTATCACGTGGCCGG was tested, and the “relative binding free energy” value was -0.05 kcal/mol.
TGTGGCACGTGTTAGA was tested, and the “relative binding free energy” value was -0.05 kcal/mol.
For AATTTCACGTGAGGGT, the “relative binding free energy” value was 0.37 kcal/mol.
In the case of TTTATCACGTGGGCGC, the “relative binding free energy” value is reported as -0.11 kcal/mol.
With GACAGCACGTGGGTAT the “relative binding free energy” value was -0.08 kcal/mol.
AAGTACACGTGGCGGG was tested, and the “relative binding free energy” value was 0.12 kcal/mol.
In the case of TGGGGCACGTGACTTG, the “relative binding free energy” value is reported as 0.07 kcal/mol.
With TTTTACACGTGATACT the “relative binding free energy” value was 0.26 kcal/mol.
With GGTTACACGTGATTAT the “relative binding free energy” value was 0.23 kcal/mol.
In the case of AACGGCACGTGTGCGG, the “relative binding free energy” value is reported as -0.16 kcal/mol.
In the case of AGAGACACGTGTGATT, the “relative binding free energy” value is reported as 0.07 kcal/mol.
For GCTGGCACGTGTTCAG, the “relative binding free energy” value was 0.08 kcal/mol.
GGATACACGTGGGTGC was tested, and the “relative binding free energy” value was 0.08 kcal/mol.
With AATGGCACGTGTCTTG the “relative binding free energy” value was -0.08 kcal/mol.
For CTATGCACGTGGTAGT, the “relative binding free energy” value was -0.24 kcal/mol.
For TGTGACACGTGAAGTG, the “relative binding free energy” value was 0.08 kcal/mol.
TGTAACACGTGCAGTA was tested, and the “relative binding free energy” value was 0.02 kcal/mol.
With GCAGGCACGTGGCTGG the “relative binding free energy” value was -0.1 kcal/mol.
